The whole screen tested about 310,000 compounds, of which about 2,200 (0.71%) showed an effect of 50% or more. Effects have a minus sign here. The list shows a part of the results.
Target: human ether-à-go-go-related gene (hERG) potassium channel (human, UniProt Q12809)
Experiment: primary screen, population patch clamp on CHO cells stably expressing hERG

Chain of human ether-à-go-go-related gene (hERG) potassium channel (Q12809 whole entry, looked up): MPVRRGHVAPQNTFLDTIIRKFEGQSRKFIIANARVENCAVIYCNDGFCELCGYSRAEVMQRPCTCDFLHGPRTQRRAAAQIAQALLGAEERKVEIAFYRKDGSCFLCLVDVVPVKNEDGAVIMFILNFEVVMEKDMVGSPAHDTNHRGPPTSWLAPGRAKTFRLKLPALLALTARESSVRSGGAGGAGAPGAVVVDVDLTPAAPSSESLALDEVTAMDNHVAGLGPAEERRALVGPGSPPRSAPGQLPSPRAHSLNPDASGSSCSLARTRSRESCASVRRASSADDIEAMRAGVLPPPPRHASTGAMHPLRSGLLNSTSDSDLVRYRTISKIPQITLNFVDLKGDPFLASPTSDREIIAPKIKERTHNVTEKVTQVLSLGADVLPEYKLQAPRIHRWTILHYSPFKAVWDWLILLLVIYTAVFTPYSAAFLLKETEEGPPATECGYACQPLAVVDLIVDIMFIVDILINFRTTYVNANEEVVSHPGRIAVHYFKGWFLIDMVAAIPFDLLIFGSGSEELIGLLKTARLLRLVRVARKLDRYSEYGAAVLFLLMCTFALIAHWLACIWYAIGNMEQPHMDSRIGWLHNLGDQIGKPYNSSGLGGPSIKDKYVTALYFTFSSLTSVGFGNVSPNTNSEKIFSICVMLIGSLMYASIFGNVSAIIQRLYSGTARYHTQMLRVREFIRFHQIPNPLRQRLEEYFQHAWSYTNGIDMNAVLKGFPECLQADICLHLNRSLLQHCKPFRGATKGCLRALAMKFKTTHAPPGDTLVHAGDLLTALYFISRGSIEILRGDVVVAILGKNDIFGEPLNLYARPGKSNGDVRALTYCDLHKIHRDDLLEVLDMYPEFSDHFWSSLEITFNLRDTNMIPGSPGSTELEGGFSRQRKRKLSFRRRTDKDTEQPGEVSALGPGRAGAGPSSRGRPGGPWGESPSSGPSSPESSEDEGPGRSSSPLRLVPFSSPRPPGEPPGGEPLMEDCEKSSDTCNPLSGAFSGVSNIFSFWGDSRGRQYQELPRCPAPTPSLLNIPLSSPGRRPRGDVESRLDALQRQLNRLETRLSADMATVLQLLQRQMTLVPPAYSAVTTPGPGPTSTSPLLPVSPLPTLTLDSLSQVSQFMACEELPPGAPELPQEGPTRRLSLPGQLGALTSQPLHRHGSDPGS

Structure (SMILES)	hERG current change (%, negative = inhibition) at 1uM
O=C(O)c1nonc1-c1nonc1C(=O)O	-7.52%
CC(C)(C)c1ccc(O)c(N=Cc2cc3c(cc2[N+](=O)[O-])OCO3)c1	11.2%
CCOC(=O)c1cnc2cc(C)ccn2c1=O	3.12%
CCOc1ccccc1C1C2C(=O)N(c3ccccc3)C(=O)C2ON1c1ccccc1 (stereo not drawn)	-5.21%
C/C(=N\Nc1nc(C)cc(-c2ccccc2)n1)c1ccc(C)o1	6.24%
C#CCNC(=O)C1=C[C@H](C2CCCCC2)C[C@H](OCc2ccc(CO)cc2)O1	2.5%
O=C(COC(=O)c1cccs1)Nc1cccc(S(=O)(=O)NC2=NCCCCC2)c1	3.35%
Nc1cc(-c2ccc(Br)cc2)nn1S(=O)(=O)c1cccc2nsnc12	10.2%
COc1ccc(C(C#N)Nc2ccccc2OC)cc1 (stereo not drawn)	4.52%
O=C(Nc1nnc(/N=C/c2ccco2)s1)c1ccc(F)cc1	11.3%
CCCCCCCNC1=CC(=O)CC(c2ccccc2)C1 (stereo not drawn)	-63.2%
C=CCn1c(N)cc(=O)nc1SCC(=O)Nc1ccc(C)cc1	10.3%
CCN(c1cc(C)cc(C)c1)S(=O)(=O)c1nnc(NC(=O)C(C)(C)C)s1	14.2%
CN1C(=O)N(C)C(=O)C2(Cc3cc(N)ccc3N3CCN(c4ccccc4F)CC32)C1=O (stereo not drawn)	3.47%
COc1ccc(S(=O)(=O)N2CCCCC2)cc1NC(=O)c1cnc(C)cn1	8.47%
COc1ccc(C2C(=O)N(CCc3ccccc3)CC(=O)N2C2CCCCC2)cc1 (stereo not drawn)	-8.51%
COC12C(COC(N)=O)C3=C(C(=O)C(C)=C(N)C3=O)N1CC1C2N1C (stereo not drawn)	4.25%
Cc1ccc(N2CCN(S(=O)(=O)N3CCOCC3)CC2)cc1C	11.1%
COCCNC(=S)N/N=C(\C)c1ccc(Cl)s1	8.63%

Structure (SMILES)	hERG current change (%, negative = inhibition) at 1uM
C/C(N)=C(/C#N)C(=O)CSc1nnc(-c2ccc(OC(F)F)cc2)o1	0.514%
C[C@H]1CCC[C@]2(O[C@@H](CCO)C[C@H](O)[C@H]2O)O1	14.8%
COc1ccccc1N1C(=O)CSC1=S	10%
CCOC(=O)C1=c2s/c(=C\c3ccncc3)c(=O)n2C(N)=C(C(=O)OC)C1c1ccncc1 (stereo not drawn)	5.64%
COC(=O)c1cccc(NC(=O)c2ccc(S(=O)(=O)N3CCN(C)CC3)cc2)c1	16.5%
CCOc1ccc(/C=N/n2cc(-c3ccccc3)[nH]c2=S)cc1	14.8%
COc1ccc(C(=O)Nc2sc(C)c(C)c2CN2CC(C)OC(C)C2)cc1 (stereo not drawn)	16.5%
Cn1c(=O)c2c(ncn2CCCc2ccccc2)n(C)c1=O	4.04%
C[C@@H]1CCC[C@H](C)N1Cc1nc(Cc2ccccc2Cl)no1	14.1%
COc1ccc(NC(=O)CSc2nnc(CNc3ccc(F)cc3)o2)c(OC)c1	12.9%
Cc1ccccc1N=C(NO)c1nonc1N	11%
COc1ccc(CCN2CC(C(=O)NC3CCOCC3)CCC2=O)cc1 (stereo not drawn)	4.8%
CCc1cccc(CC)c1NC(=O)CN(CC(=O)O)CC(=O)O	12.1%
O=C(/C=N/O)NCCCN1CCCCCC1	7.96%
Cc1ccc2c(c1)nnn2C1CCN(S(=O)(=O)c2ccc(C(=O)N3C(C)CCCC3C)cc2)CC1 (stereo not drawn)	7.12%
COc1ccc(C(c2nnnn2C2CCCCC2)N2CCN(c3ccccc3F)CC2)cc1 (stereo not drawn)	7.35%
CCOC(=O)N1CCC(NC(=O)c2ccc3snnc3c2)CC1	-10.2%
CCc1c(C)[nH]n(-c2nc(-c3ccccc3)cs2)c1=O	19.8%
COc1ccc(CNc2cccc(F)c2)cc1Br	2.58%

Structure (SMILES)	hERG current change (%, negative = inhibition) at 1uM
COC/C=C/C1=CC2=CC(=O)C(C)(OC(=O)c3cnc4ccccc4n3)C(=O)C2=CN1C1CCCCC1 (stereo not drawn)	9.88%
O=C1Nc2ccccc2S/C1=C\C(=O)N1CCCC1	11%
O=C(NC1CCCCC1)N1CCC(n2cnc3ccccc32)CC1	11.3%
C[C@@H]1CN(C2CCN(Cc3nc(C(c4ccccc4)c4ccccc4)no3)CC2)C[C@H](C)O1	-2.33%
O=C(/C=C/c1ccc(OCc2c(F)cccc2Cl)cc1)N1CCOCC1	-3.56%
CCOCCCNCc1cn(-c2ccc(F)cc2F)nc1-c1ccccc1C	-5.46%
C[C@@H](NC(=O)c1nc[nH]c1C(=O)N1CCN(C(=O)OC(C)(C)C)CC1)c1ccccc1	14.4%
O=C1C=C(c2ccc3ncccc3c2)C[C@@H](c2ccc(Cl)cc2)C1	10.4%
COc1cc(/C=N/NC(=O)c2nnn(-c3nonc3N)c2C(C)C)ccc1OCc1ccc(F)cc1	27.3%
Cc1cc(Cl)ccc1OC(C)C(=O)Nc1ccc(S(=O)(=O)N2CCOCC2)cc1 (stereo not drawn)	14.2%
O=C(Nc1nnc(Cc2ccc([N+](=O)[O-])cc2)s1)Nc1ccccc1F	18.3%
Cc1nc(C(=O)NCC(=O)c2ccc(Cl)cc2)c(C(F)(F)F)o1	10.8%
O=C(COC(=O)c1cc(Cl)ccc1Cl)NCCN1C(=O)CSC1=O	7.4%
Cc1ccc2c(CC(=O)NCc3ccco3)coc2c1C	4.61%
CC(=O)Nc1c(O)nc(SCC(=O)Nc2c(C)cccc2C)[nH]c1=O	8.27%
COc1cc(S(=O)(=O)NCc2ccc3c(c2)OCO3)ccc1F	8.7%
CSc1nnc(C)c(=O)n1COC(=O)COc1ccc(Cl)cc1Cl	0.251%
COc1ccc(C2C=C(C34CC5CC(CC(C5)C3)C4)NC(=S)N2)cc1OC (stereo not drawn)	-5.65%
Cc1cc(C)c(S(=O)(=O)NCc2cn3ccccc3n2)c(C)c1	11.2%

Reference: article PMC4336329 (PLoS ONE, 2015)
